# The list shows a part of the results.
# B1: BTL (Bryothamnion triquetrum) (protein)
# chain: ADPICGSSGYSCTTPAILTPKSPGSFPSGYSKVIVTGVGGSYSVYIHRPDGFKVYKASEGGCASFGSYSGGGNSEVGKYGSGGTVVAVACK
# Legend:
# Test in all cases: glycan array binding signal (z-score within array); higher = stronger binding
# Settings in all cases: glycan notation: IUPAC condensed, linker removed
# [1] = target: Gal(b1-4)GlcNAc(b1-3)Gal(b1-4)GlcNAc(b1-3)[Gal(b1-4)GlcNAc(b1-3)Gal(b1-4)GlcNAc(b1-6)]GalNAc
# How it was run: (§1)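 Glycan array binding is given as a within-array Z-score, which can be read as non-binding when negative. The arrays, 3228 of them, came from the Consortium for Functional Glycomics database and were retained only where the protein sequence was available. Z-scores were averaged across arrays of the same protein sequence at different concentrations or buffers and across linkers.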
# [2] = target: Gal(b1-4)GlcNAc(b1-3)Gal(b1-4)GlcNAc(b1-6)[Gal(b1-3)]GalNAc
# How it was run: as §1
# [3] = target: Gal(b1-4)GlcNAc(b1-3)Gal(b1-4)[Fuc(a1-3)]GlcNAc(b1-3)Gal(b1-4)[Fuc(a1-3)]GlcNAc
# How it was run: as §1
# [4] = target: Gal(b1-4)GlcNAc(b1-3)GalNAc
# How it was run: as §1
# [5] = target: Gal(b1-4)GlcNAc(b1-3)[Fuc(a1-3)GlcNAc(b1-6)]Gal(b1-4)Glc
# How it was run: as §1
# [6] = target: Gal(b1-4)GlcNAc(b1-3)[Gal(b1-4)GlcNAc(b1-6)]Gal(b1-4)GlcNAc
# How it was run: as §1
# [7] = target: Gal(b1-4)GlcNAc(b1-3)[GlcNAc(b1-6)]Gal(b1-4)GlcNAc
# How it was run: as §1
# [8] = target: Gal(b1-4)GlcNAc(b1-6)Gal(b1-4)GlcNAc
# How it was run: as §1
# [9] = target: Gal(b1-4)GlcNAc(b1-6)GalNAc
# How it was run: as §1
# [10] = target: Gal(b1-4)GlcNAc(b1-6)[Gal(b1-3)]GalNAc
# How it was run: as §1
# [11] = target: Gal(b1-4)GlcNAc(b1-6)[Gal(b1-4)GlcNAc(b1-3)]GalNAc
# How it was run: as §1
# Gal(b1-4)GlcNAc6P = target: Gal(b1-4)GlcNAc6P
# How it was run: as §1
# Gal(b1-6)Gal = target: Gal(b1-6)Gal
# How it was run: as §1
# Gal3S(b1-3)GalNAc = target: Gal3S(b1-3)GalNAc
# How it was run: as §1
# Gal3S(b1-3)GlcNAc = target: Gal3S(b1-3)GlcNAc
# How it was run: as §1
# [12] = target: Gal3S(b1-3)[Fuc(a1-4)]GlcNAc
# How it was run: as §1
# Gal3S(b1-4)Glc = target: Gal3S(b1-4)Glc
# How it was run: as §1
# Gal3S(b1-4)Glc6S = target: Gal3S(b1-4)Glc6S
# How it was run: as §1
# Gal3S(b1-4)GlcNAc = target: Gal3S(b1-4)GlcNAc
# How it was run: as §1
# [13] = target: Gal3S(b1-4)[Fuc(a1-3)]Glc6S
# How it was run: as §1
# [14] = target: Gal3S(b1-4)[Fuc(a1-3)]GlcNAc
# How it was run: as §1
# [15] = target: Gal3S(b1-4)[Fuc(a1-3)]GlcNAc6S
# How it was run: as §1
# Gal3S4S(b1-4)GlcNAc = target: Gal3S4S(b1-4)GlcNAc
# How it was run: as §1
# Gal3S6S(b1-4)GlcNAc = target: Gal3S6S(b1-4)GlcNAc
# How it was run: as §1
# Gal3S6S(b1-4)GlcNAc6S = target: Gal3S6S(b1-4)GlcNAc6S
# How it was run: as §1
# Gal4S(b1-4)GlcNAc = target: Gal4S(b1-4)GlcNAc
# How it was run: as §1
# Gal4S6S(b1-4)GlcNAc = target: Gal4S6S(b1-4)GlcNAc
# How it was run: as §1
# Gal6P(b1-4)GlcNAc = target: Gal6P(b1-4)GlcNAc
# How it was run: as §1
# Gal6S(b1-3)GlcNAc = target: Gal6S(b1-3)GlcNAc
# How it was run: as §1
# Gal6S(b1-3)GlcNAc6S = target: Gal6S(b1-3)GlcNAc6S
# How it was run: as §1
# Gal6S(b1-4)Glc = target: Gal6S(b1-4)Glc
# How it was run: as §1
# Gal6S(b1-4)Glc6S = target: Gal6S(b1-4)Glc6S
# How it was run: as §1
# Gal6S(b1-4)GlcNAc = target: Gal6S(b1-4)GlcNAc
# How it was run: as §1
# Gal6S(b1-4)GlcNAc6S = target: Gal6S(b1-4)GlcNAc6S
# How it was run: as §1
# GalNAc(a1-3)Gal = target: GalNAc(a1-3)Gal
# How it was run: as §1
# GalNAc(a1-3)GalNAc = target: GalNAc(a1-3)GalNAc
# How it was run: as §1
# [16] = target: GalNAc(a1-3)GalNAc(b1-3)Gal(a1-4)Gal(b1-4)Glc
# How it was run: as §1
# [17] = target: GalNAc(a1-3)GalNAc(b1-3)Gal(a1-4)Gal(b1-4)GlcNAc
# How it was run: as §1
# GalNAc(b1-3)Gal = target: GalNAc(b1-3)Gal
# How it was run: as §1
# [18] = target: GalNAc(b1-3)Gal(a1-4)Gal(b1-4)GlcNAc
# How it was run: as §1
# [19] = target: GalNAc(b1-3)Gal(a1-4)Gal(b1-4)GlcNAc(b1-3)Gal(b1-4)Glc
# How it was run: as §1
# [20] = target: GalNAc(b1-3)Gal(a1-6)Gal(b1-4)Glc
# How it was run: as §1
# GalNAc(b1-3)GalNAc = target: GalNAc(b1-3)GalNAc
# How it was run: as §1
# GalNAc(b1-3)GlcNAc = target: GalNAc(b1-3)GlcNAc
# How it was run: as §1
# GalNAc(b1-4)Gal(b1-4)Glc = target: GalNAc(b1-4)Gal(b1-4)Glc
# How it was run: as §1
binder,measurement,setting,value
B1,glycan array binding signal (z-score),[1],-0.096
same,glycan array binding signal (z-score),[2],-0.128
same,glycan array binding signal (z-score),[3],-0.163
same,glycan array binding signal (z-score),[4],-0.188
same,glycan array binding signal (z-score),[5],-0.23
same,glycan array binding signal (z-score),[6],-0.235
same,glycan array binding signal (z-score),[7],-0.263
same,glycan array binding signal (z-score),[8],-0.221
same,glycan array binding signal (z-score),[9],-0.162
same,glycan array binding signal (z-score),[10],-0.252
same,glycan array binding signal (z-score),[11],-0.242
same,glycan array binding signal (z-score),Gal(b1-4)GlcNAc6P,-0.154
same,glycan array binding signal (z-score),Gal(b1-6)Gal,-0.25
same,glycan array binding signal (z-score),Gal3S(b1-3)GalNAc,-0.283
same,glycan array binding signal (z-score),Gal3S(b1-3)GlcNAc,-0.223
same,glycan array binding signal (z-score),[12],-0.256
same,glycan array binding signal (z-score),Gal3S(b1-4)Glc,-0.168
same,glycan array binding signal (z-score),Gal3S(b1-4)Glc6S,-0.219
same,glycan array binding signal (z-score),Gal3S(b1-4)GlcNAc,-0.256
same,glycan array binding signal (z-score),[13],-0.128
same,glycan array binding signal (z-score),[14],-0.255
same,glycan array binding signal (z-score),[15],-0.239
same,glycan array binding signal (z-score),Gal3S4S(b1-4)GlcNAc,-0.266
same,glycan array binding signal (z-score),Gal3S6S(b1-4)GlcNAc,-0.237
same,glycan array binding signal (z-score),Gal3S6S(b1-4)GlcNAc6S,-0.186
same,glycan array binding signal (z-score),Gal4S(b1-4)GlcNAc,-0.304
same,glycan array binding signal (z-score),Gal4S6S(b1-4)GlcNAc,-0.246
same,glycan array binding signal (z-score),Gal6P(b1-4)GlcNAc,-0.224
same,glycan array binding signal (z-score),Gal6S(b1-3)GlcNAc,-0.261
same,glycan array binding signal (z-score),Gal6S(b1-3)GlcNAc6S,-0.24
same,glycan array binding signal (z-score),Gal6S(b1-4)Glc,-0.248
same,glycan array binding signal (z-score),Gal6S(b1-4)Glc6S,-0.18
same,glycan array binding signal (z-score),Gal6S(b1-4)GlcNAc,-0.291
same,glycan array binding signal (z-score),Gal6S(b1-4)GlcNAc6S,-0.228
same,glycan array binding signal (z-score),GalNAc(a1-3)Gal,-0.226
same,glycan array binding signal (z-score),GalNAc(a1-3)GalNAc,-0.245
same,glycan array binding signal (z-score),[16],-0.25
same,glycan array binding signal (z-score),[17],-0.245
same,glycan array binding signal (z-score),GalNAc(b1-3)Gal,-0.249
same,glycan array binding signal (z-score),[18],-0.197
same,glycan array binding signal (z-score),[19],-0.226
same,glycan array binding signal (z-score),[20],-0.249
same,glycan array binding signal (z-score),GalNAc(b1-3)GalNAc,-0.278
same,glycan array binding signal (z-score),GalNAc(b1-3)GlcNAc,-0.266
same,glycan array binding signal (z-score),GalNAc(b1-4)Gal(b1-4)Glc,-0.202

# — the supplement of paper PMC8728848
